This is an account of results in the antibiotic and cytotoxicity screens of Wong et al. (2023).

The other results are listed elsewhere or left out.

This assay relates to S. aureus RN4220. As to the kind of experiment: growth inhibition call (relative growth <= 0.2). The conditions noted are these: 50 µM.
`C[C@H]1CCCCO[C@@H](CN(C)C(=O)CCC(F)(F)F)[C@@H](C)CN([C@@H](C)CO)C(=O)c2cc(NS(=O)(=O)c3ccccc3)ccc2O1`: the growth inhibition call was “inactive”.

With `C[C@H]1CN([C@@H](C)CO)C(=O)c2cc(NC(=O)Nc3cccc4ccccc34)ccc2O[C@H]1CN(C)S(=O)(=O)c1ccc(F)cc1`, the growth inhibition call was “inactive”. With `C[C@H](CO)N1C[C@H](C)[C@H](CN(C)C(=O)Nc2ccc(F)cc2)Oc2ccc(NC(=O)CCCCCC(=O)Nc3ccccc3N)cc2C1=O`, the growth inhibition call is “inactive”. Take `C[C@@H]1CN([C@@H](C)CO)C(=O)c2cc(NC(=O)Nc3ccc4c(c3)OCO4)ccc2O[C@H]1CN(C)S(=O)(=O)c1cn(C)cn1`: the growth inhibition call was “inactive”. In the case of `Cc1ccc(S(=O)(=O)N(C)C[C@@H]2OCCCC[C@@H](C)Oc3ccc(NC(=O)Nc4ccc(F)cc4)cc3C(=O)N([C@H](C)CO)C[C@H]2C)cc1`, the growth inhibition call is “inactive”. Consider `c1ccc2c(c1)Cn1nnnc1-2`, for which the growth inhibition call is “inactive”.

Take `C[C@H]1CCCCO[C@H](CN(C)C(=O)Nc2ccccc2)[C@@H](C)CN([C@@H](C)CO)C(=O)c2cc(NC(=O)Nc3cccc4ccccc34)ccc2O1`: the growth inhibition call is “inactive”. Under `CN1C(=O)c2cc(NS(=O)(=O)c3cccc(F)c3)ccc2OC[C@H]2O[C@@H](CC(=O)NCCN3CCCCC3)CC[C@H]21` stands “inactive”; under `CC(C)N1C[C@H](C)[C@@H](CN(C)Cc2ccc(Oc3ccccc3)cc2)Oc2c(NC(=O)c3ccccn3)cccc2C1=O`, “inactive”.

As for `C[C@@H]1CN([C@H](C)CO)C(=O)c2cc(NS(=O)(=O)c3cccs3)ccc2O[C@@H](C)CCCCO[C@@H]1CN(C)C(=O)Cc1ccccc1`, the growth inhibition call is “inactive”. To `COCCOC(=O)N1C(=O)[C@@]2(c3cc(C#CCNC(N)=O)ccc31)[C@H](c1ccc(O)cc1)N1[C@H](c3ccccc3)[C@H](c3ccccc3)OC(=O)[C@H]1[C@@H]2C(=O)N1CCc2cc(OC)c(OC)cc2C1` belongs “inactive”; to `C[C@@H]1CN([C@H](C)CO)S(=O)(=O)c2ccc(C#CC(C)(C)O)cc2O[C@H]1CN(C)C(=O)CN(C)C`, “inactive”. As to `C[C@H]1CCCCO[C@@H](CN(C)C(=O)c2ccccc2)[C@@H](C)CN([C@@H](C)CO)C(=O)c2cc(NS(=O)(=O)c3ccccc3)ccc2O1`, the growth inhibition call was “inactive”.

For the molecule `Cc1ccccc1N1CCN(S(=O)(=O)C[C@]23CC[C@H](C[C@@H]2NC(=O)[C@@H](N)CCS(C)(=O)=O)C3(C)C)CC1`, the growth inhibition call was “inactive”. To `Cc1ccc(S(=O)(=O)N(C)C[C@H]2Oc3cc(Br)ccc3S(=O)(=O)N([C@H](C)CO)C[C@H]2C)cc1` belongs “inactive”. As to `COc1ccc(S(=O)(=O)N(C)C[C@@H]2OCCCC[C@@H](C)Oc3ccc(NC(=O)Nc4ccc(F)cc4)cc3C(=O)N([C@@H](C)CO)C[C@H]2C)cc1`, the growth inhibition call was “inactive”. Under `Cc1noc(C)c1NC(=O)N(C)C[C@H]1OCCCC[C@@H](C)Oc2ccc(NS(=O)(=O)c3ccc(Cl)cc3)cc2C(=O)N([C@H](C)CO)C[C@@H]1C` stands “inactive”; under `Cc1ccc(S(=O)(=O)N2C[C@H](O)COC[C@H]3O[C@H](CC(=O)NCc4ccc5c(c4)OCO5)CC[C@@H]32)cc1`, “inactive”. `COc1ccc2c(=O)c(OC)c(-c3ccccc3)oc2c1`: the growth inhibition call was “inactive”.

`CO[C@@H]1CN(C)C(=O)c2ccc(NC(=O)CN(C)C)cc2OC[C@@H](C)N(C(=O)C2CCOCC2)C[C@H]1C`: the growth inhibition call was “inactive”.

`CCCN(C)C[C@H]1OCCCC[C@@H](C)Oc2ccc(NC(=O)NC3CCCCC3)cc2C(=O)N([C@@H](C)CO)C[C@H]1C`: the growth inhibition call is “inactive”. As for `Cc1ccc(S(=O)(=O)Nc2ccc3c(c2)C(=O)N([C@@H](C)CO)C[C@@H](C)[C@@H](CN(C)C(=O)Nc2c(C)noc2C)OCCCC[C@H](C)O3)cc1`, the growth inhibition call was “inactive”. Take `C[C@@H]1CCCCO[C@@H](CN(C)Cc2ccccc2)[C@@H](C)CN([C@@H](C)CO)C(=O)c2cc(NC(=O)Nc3ccc4c(c3)OCO4)ccc2O1`: the growth inhibition call was “inactive”.

As to `C[C@H]1CN([C@@H](C)CO)C(=O)Cc2cc(NC(=O)c3ccncc3)ccc2O[C@H]1CN(C)Cc1ccncc1`, the growth inhibition call was “inactive”. With `CCN(CC)c1ccc(N2CC=C[C@@]34O[C@@H]5/C=C\CCCOC(=O)[C@@H]5[C@H]3C(=O)N(CCCCCCO)[C@@H]4C2=O)cc1`, the growth inhibition call is “inactive”. Regarding `C[C@H](CO)N1C[C@H](C)[C@@H](CN(C)C(=O)Nc2ccc3c(c2)OCO3)Oc2ccc(NS(C)(=O)=O)cc2C1=O`, the growth inhibition call was “inactive”. To `C[C@H]1CN([C@@H](C)CO)C(=O)Cc2cc(NS(=O)(=O)c3ccc(Cl)cc3)ccc2O[C@@H]1CN(C)Cc1ccc(Oc2ccccc2)cc1` belongs “inactive”.
